# Test results from the supplement of paper PMC12217912.
# Some of the results follow. The full chains were built here from the parent and the listed change. Inactive controls read about 0.05.
# B1: TEV protease; numbered along this chain (parent)
# chain: MGESLFKGPRDYNPISSSICHLTNESDGHTTSLYGIGFGPFIITNKHLFRRNNGTLVVQSLHGVFKVKDTTTLQQHLVDGRDMIIIRMPKDFPPFPQKLKFREPQREERICLVTTNFQTKSMSSMVSDTSCTFPSGDGIFWKHWIQTKDGQCGSPLVSTRDGFIVGIHSASNFTNTNNYFTSVPKNFMELLTNQEAQQWVSGWRLNADSVLWGGHKVFMVKPEEPFQPVKEATQL
# Variants of: B1
# Assay: raw area under fraction-flipped curve 0-4 h after induction (AUC4h, not background-subtracted), DNA-recorder readout of cleavage of the substrate (dimensionless); higher = more cleavage of the substrate by the protease variant
# Details: temperature: 34 °C; time window: 0-4 h after rhamnose induction
# Procedure: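 In vivo DNA recorder in E. coli TOP10(DE3) ΔrhaA at 34 °C. Each TEVp single-site mutant (parent TEVp 0) is paired with a single-site variant of the 7-mer TEVs (canonical ENLYFQ|S). The substrate sits between flexible linkers in a Bxb1-sfGFP-TEVs-SsrA fusion, so cleavage stabilises Bxb1 and speeds flipping of a recombination array, read by NGS. The value is the raw area under the fraction-flipped curve over 0-4 h after rhamnose induction (AUC4h), with ≥20 reads per time point. It is not background-subtracted; inactive controls average about 0.047.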
# 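Note: Bxb1 expression induced with 0.2% (w/v) L-rhamnose at OD600 near 0.5, cultures sampled hourly, flipped fraction per protease–substrate barcode pair counted by paired-end Illumina sequencing.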
Variant,area with substrate EALYFQS,area with substrate ECLYFQS,area with substrate EFLYFQS,area with substrate EGLYFQS,area with substrate EILYFQS,area with substrate EKLYFQS,area with substrate ELLYFQS,area with substrate EMLYFQS,area with substrate EPLYFQS,area with substrate EQLYFQS,area with substrate ERLYFQS,area with substrate ESLYFQS,area with substrate EVLYFQS,area with substrate EWLYFQS,area with substrate EYLYFQS,area with substrate EELYFQS,area with substrate EDLYFQS,area with substrate EHLYFQS
MGESLFKGPRDYNPISSSICHLTNESDGHTTSLYGIGFGPFIITNKHLFRRNNGTLVVQSLHGVFKVKDTTTLQQHLVDGRDMIIIRMPKDFPPFPQKLKFREPQREERICLVTTNFQTKSMSSMVSDTSCTFPSGDGIFWKHWIQTKDGQCGSPLVSTRDGFIVGIHSASNFTNTCNYFTSVPKNFMELLTNQEAQQWVSGWRLNADSVLWGGHKVFMVKPEEPFQPVKEATQL [N177C],0.23,0.151,0.151,0.14,0.101,0.122,0.107,0.149,0.166,0.163,0.135,0.15,0.14,0.157,0.136,,,
MGESLFKGPRDYNPISSSICHLTNESDGHTTSLYGIGFGPFIITNKHLFRRNNGTLVVQSLHGVFKVKDTTTLQQHLVDGRDMIIIRMPKDFPPFPQKLKFREPQREERICLVTTNFQTKSMSSMVSDTSCTFPSGDGIFWKHWIQTKDGQCGSPLVSTRDGFIVGIHSASNHTNTNNYFTSVPKNFMELLTNQEAQQWVSGWRLNADSVLWGGHKVFMVKPEEPFQPVKEATQL [F173H],0.0802,0.141,,0.0614,0.0863,0.0724,0.0748,0.0738,,0.11,,0.117,0.0796,0.0638,0.101,0.121,,
MGESLFKGPRDYNPISSSICHLTNESDGHTTSLYGIGFGPFIITNKHLFRRNNGTLVVQSLHGVFKVKDTTTLQQHLVDGRDMIIIRMPKDFPPFPQKLKFREPQREERICLVTTNFQTKSMSSMVSDTSCTFPSGDGIFWKHWIQTKDGQCGSPLVSTRDGFIVGIHSASNETNTNNYFTSVPKNFMELLTNQEAQQWVSGWRLNADSVLWGGHKVFMVKPEEPFQPVKEATQL [F173E],0.0848,0.0697,0.0797,0.0563,,0.0912,,,0.103,,0.0934,,0.147,,0.075,0.0995,,
MGESLFKGPRDYNPISSSICHLTNESDGHTTSLYGIGFGPFIITNKHLFRRNNGTLVVQSLHGVFKVKDTTTLQQHLVDGRDMIIIRMPKDFPPFPQKLKFREPQREERICLVTTNFQTKSMSSMVSDTSCTFPSGDGIFWKHWIQTKDGQCGSPLVSTRDGFIVGIHSASNFTNTNAYFTSVPKNFMELLTNQEAQQWVSGWRLNADSVLWGGHKVFMVKPEEPFQPVKEATQL [N178A],0.132,0.115,,,,0.102,,,,,,0.114,,,,,0.135,
MGESLFKGPRDYNPISSSICHLTNESDGHTTSLYGIGFGPFIITNKHLFRRNNGTLVVQSLHGVFKVKDTTTLQQHLVDGRDMIIIRMPKDFPPFPQKLKFREPQREERICLVTTNFQTKSMSSMVSDTSCTFPSGDGIFWKHWIQTKDGQCGSPLVSTRDGFIVGIHSAHNFTNTNNYFTSVPKNFMELLTNQEAQQWVSGWRLNADSVLWGGHKVFMVKPEEPFQPVKEATQL [S171H],0.0607,,,0.0616,0.0669,0.077,,0.0521,,0.0602,,0.0684,0.068,0.0611,,,0.069,0.0522
MGESLFKGPRDYNPISSSICHLTNESDGHTTSLYGIGFGPFIITNKHLFRRNNGTLVVQSLHGVFKVKDTTTLQQHLVDGRDMIIIRMPKDFPPFPQKLKFREPQREERICLVTTNFQTKSMSSMVSDTSCTFPSGDGIFWKHWIQTKDGQCGSPLVSTRDGFIVGIHSACNFTNTNNYFTSVPKNFMELLTNQEAQQWVSGWRLNADSVLWGGHKVFMVKPEEPFQPVKEATQL [S171C],0.0871,0.0726,,,0.0795,0.0984,,0.102,0.0668,,,,0.0982,0.0479,0.0882,0.0805,,0.0796
MGESLFKGPRDYNPISSSICHLTNESDGHTTSLYGIGFGPFIITNKHLFRRNNGTLVVQSLHGVFKVKDTTTLQQHLVDGRDMIIIRMPKDFPPFPQKLKFREPQREERICLVTTNFQTKSMSSMVSDTSCTFPSGDGIFWKHWIQTKDGQCGSPLVSTRDGFIVGIHSASNFTGTNNYFTSVPKNFMELLTNQEAQQWVSGWRLNADSVLWGGHKVFMVKPEEPFQPVKEATQL [N175G],0.13,,,,0.0988,0.0697,,,0.141,0.123,0.0981,0.103,0.106,0.085,0.103,,0.105,0.101
MGESLFKGPRDYNPISSSICHLTNESDGHTTSLYGIGFGPFIITNKHLFRRNNGTLVVQSLHGVFKVKDTTTLQQHLVDGRDMIIIRMPKDFPPFPQKLKFREPQREERICLVTTNFQTKSMSSMVSDTSCTFPSGDGIFWKHWIQTKDGQCGSPLVSTRDGFIVGIHSASNFTLTNNYFTSVPKNFMELLTNQEAQQWVSGWRLNADSVLWGGHKVFMVKPEEPFQPVKEATQL [N175L],0.0924,,,0.0735,0.0734,0.0623,0.0678,0.103,0.0834,0.0941,0.059,0.0909,0.0706,0.0598,0.0883,0.0805,0.0841,0.0819
MGESLFKGPRDYNPISSSICHLTNESDGHTTSLYGIGFGPFIITNKHLFRRNNGTLVVQSLHGVFKVKDTTTLQQHLVDGRDMIIIRMPKDFPPFPQKLKFREPQREERICLVTTNFQTKSMSSMVSDTSCTFPSGDGIFWKHWIQTKDGQCGSPLVSTRDGFIVGIHSYSNFTNTNNYFTSVPKNFMELLTNQEAQQWVSGWRLNADSVLWGGHKVFMVKPEEPFQPVKEATQL [A170Y],0.0568,,0.0701,,0.0582,,,0.0644,,,,0.0606,0.0587,,,,,
MGESLFKGPRDYNPISSSICHLTNESDGHTTSLYGIGFGPFIITNKHLFRRNNGTLVVQSLHGVFKVKDTTTLQQHLVDGRDMIIIRMPKDFPPFPQKLKFREPQREERICLVTTNFQTKSMSSMVSDTSCTFPSGDGIFWKHWIQTKDGQCGSPLVSTRDGFIVGIHSTSNFTNTNNYFTSVPKNFMELLTNQEAQQWVSGWRLNADSVLWGGHKVFMVKPEEPFQPVKEATQL [A170T],0.127,,,,,,,,,0.0512,,0.0665,0.059,,,0.0656,,
